Here are results for five molecules from PubChem BioAssay (NCI).

Molecules are shown by their SMILES.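 Assay format: 96-well plates, 48-hour exposure. At the GI50, growth is halved. TGI denotes the concentration required for complete inhibition of growth.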

This test has as its system NCI-H322M lung. The test can be described thus: growth of human tumour cells (NCI), 48 h.
For the molecule `COc1cc2c(c(OC)c1OC)C(=O)CC(c1cccc(NC(=O)c3cccc([N+](=O)[O-])c3)c1)O2` (stereo not given), the GI50 was 66.6 µM and the TGI is above 100 µM.

Turning to `O=C1Nc2cc(Cl)ccc2/C1=C/c1cccc(OCc2ccccn2)c1`, the GI50 was 15.6 µM and the TGI stood at 78.5 µM.

`CS(=O)(=O)Nc1ccc(-c2ccc3c(c2)ncn3-c2ccc(NC(=O)Nc3ccc(Cl)c(C(F)(F)F)c3)cc2)cc1`: the GI50 was 3.63 µM and the TGI worked out at 14.2 µM.

As for `COc1cccc(C(N)=Nc2ccc(OCCCCCCCCn3cncn3)cc2)c1`, the GI50 is 0.676 µM and the TGI is above 100 µM.

With `COc1ccc(-c2nnc3c(/C=C/c4ccc(Br)cc4)nc4ccccc4n23)cc1`, the GI50 is 16.4 µM and the TGI was found to be 39 µM.
